Results as given in article PMC9684302.
Results are given in words; binding and its absence hold for the method and conditions named. In cells and extracts the contact can be indirect. Some binding calls cover weakened binding; strength is not graded here. For part of these data: Tags and fused reporters may be left off the sequences shown.

Protein sequences, listed by entry. Tags and fused reporters are not part of them. Lines headed by an entry give the natural chain unless they say otherwise; changes in a name come on top.
UniProt Q16637: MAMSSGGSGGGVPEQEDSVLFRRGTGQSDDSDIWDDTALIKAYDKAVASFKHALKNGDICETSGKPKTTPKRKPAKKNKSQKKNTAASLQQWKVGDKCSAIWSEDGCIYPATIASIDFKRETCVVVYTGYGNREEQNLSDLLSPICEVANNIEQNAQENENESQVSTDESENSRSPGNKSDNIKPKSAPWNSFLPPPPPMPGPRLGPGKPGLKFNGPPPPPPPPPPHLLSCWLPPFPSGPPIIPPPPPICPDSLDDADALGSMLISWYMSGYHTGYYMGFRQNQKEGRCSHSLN
UniProt P51114: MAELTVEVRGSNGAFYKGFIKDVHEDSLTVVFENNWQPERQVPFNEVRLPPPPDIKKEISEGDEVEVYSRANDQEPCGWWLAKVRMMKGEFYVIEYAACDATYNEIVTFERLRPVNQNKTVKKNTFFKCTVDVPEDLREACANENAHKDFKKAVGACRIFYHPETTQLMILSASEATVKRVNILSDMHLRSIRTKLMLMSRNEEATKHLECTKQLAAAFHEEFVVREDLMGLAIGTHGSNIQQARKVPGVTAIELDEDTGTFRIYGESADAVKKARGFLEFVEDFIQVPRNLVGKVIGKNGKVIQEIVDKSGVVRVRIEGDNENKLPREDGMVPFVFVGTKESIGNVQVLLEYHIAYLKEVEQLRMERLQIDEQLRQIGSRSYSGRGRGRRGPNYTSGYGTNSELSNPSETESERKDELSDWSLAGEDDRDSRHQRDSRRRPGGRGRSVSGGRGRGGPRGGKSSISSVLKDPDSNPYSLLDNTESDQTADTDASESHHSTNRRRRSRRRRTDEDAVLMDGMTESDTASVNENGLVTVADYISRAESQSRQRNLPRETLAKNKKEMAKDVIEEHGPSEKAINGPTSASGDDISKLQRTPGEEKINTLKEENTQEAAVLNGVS
UniProt Q9BRJ7: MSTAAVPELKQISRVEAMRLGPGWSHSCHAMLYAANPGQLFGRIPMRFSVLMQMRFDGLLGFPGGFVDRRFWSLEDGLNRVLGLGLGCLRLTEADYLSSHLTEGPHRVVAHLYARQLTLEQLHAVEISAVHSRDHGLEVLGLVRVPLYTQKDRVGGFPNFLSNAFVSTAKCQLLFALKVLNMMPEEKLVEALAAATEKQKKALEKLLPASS
UniProt P51116: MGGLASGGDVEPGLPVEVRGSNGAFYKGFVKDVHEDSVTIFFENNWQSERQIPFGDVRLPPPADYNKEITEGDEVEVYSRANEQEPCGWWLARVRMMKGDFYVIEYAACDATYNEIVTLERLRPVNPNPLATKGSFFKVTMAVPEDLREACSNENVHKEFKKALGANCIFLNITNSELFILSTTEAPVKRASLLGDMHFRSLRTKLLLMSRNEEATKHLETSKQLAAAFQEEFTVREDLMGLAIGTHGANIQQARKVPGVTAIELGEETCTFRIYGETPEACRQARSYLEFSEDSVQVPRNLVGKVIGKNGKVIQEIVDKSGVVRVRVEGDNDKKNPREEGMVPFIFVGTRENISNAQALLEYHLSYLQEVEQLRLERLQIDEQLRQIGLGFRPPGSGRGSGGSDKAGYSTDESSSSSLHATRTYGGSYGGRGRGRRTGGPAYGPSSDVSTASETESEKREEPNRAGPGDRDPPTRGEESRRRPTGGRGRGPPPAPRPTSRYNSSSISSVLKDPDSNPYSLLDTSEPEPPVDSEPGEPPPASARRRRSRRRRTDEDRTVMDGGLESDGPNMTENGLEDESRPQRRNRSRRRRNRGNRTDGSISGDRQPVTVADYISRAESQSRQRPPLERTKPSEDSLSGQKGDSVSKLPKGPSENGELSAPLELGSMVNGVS

Key:
[1] = molecular target: MYC-BirA-SMN (human) (UniProt Q16637); assay: co-IP; FLAG-tagged candidates co-expressed with MYC-BirA or MYC-BirA-SMN forms in HEK293T; IP with α-MYC, blot with α-FLAG; 50 mM Tris-Cl pH 7.5, 200 mM NaCl, 0.1% Triton X, 10% glycerol
[2] = molecular target: FLAG-FXR1 (UniProt P51114); assay: co-IP; FLAG-tagged candidates expressed on their own in HEK293T; IP with α-FLAG, blot with α-SMN for endogenous SMN; also after siRNA silencing of PRMT1-8 (silencing of PRMT1 enhanced the co-IP with FLAG-FMRP)
[3] = molecular target: GST-SMN (full-length WT, SMNWT) (human) (UniProt Q16637); assay: pull-down; purified recombinant GST-SMN forms incubated with cell extracts containing FLAG-FMRP or FLAG-FXR1, glutathione-Sepharose beads, blot with α-FLAG or α-GST; only the target purified
[4] = molecular target: MYC-BirA-SMN Y130C (human) (UniProt Q16637); assay: co-IP; FLAG-tagged candidates co-expressed with MYC-BirA or MYC-BirA-SMN forms in HEK293T; IP with α-MYC, blot with α-FLAG; 50 mM Tris-Cl pH 7.5, 200 mM NaCl, 0.1% Triton X, 10% glycerol
[5] = molecular target: MYC-BirA-SMN_(E134K) (human) (UniProt Q16637); assay: as above
[6] = molecular target: MYC-BirA-SMN_(AC/DC) (aromatic cage dead, W102A/Y109A/Y127A/Y130A quadruple mutant) (human) (UniProt Q16637); assay: as above

**Q.** With FLAG-TIRR (from UniProt Q9BRJ7 1-211) as the molecule, how does the binding [1] read?
**A.** The binding was “no binding”.

**Q.** With “endogenous SMN (from UniProt Q16637 1-294)” as the molecule, how does the binding [2] read?
**A.** The binding was “binds”.

**Q.** Which binding [3] does the source give for FLAG-FXR1 (from UniProt P51114 1-621) here?
**A.** Its binding is “binds”.

**Q.** What about the binding [4] of the same molecule?
**A.** Its binding is “no binding”.

**Q.** And the binding [1]?
**A.** Its binding is “binds”.

**Q.** What about the binding [5] of the same molecule?
**A.** Its binding is “binds”.

**Q.** What about the binding [6] of the same molecule?
**A.** Its binding is “no binding”.

**Q.** FLAG-FXR2 (from UniProt P51116 1-673) was tested. Which binding [1] did it give?
**A.** The binding was “binds”.

B1: FLAG-CSRP2 (protein, UniProt Q16527 1-193)
chain: MPVWGGGNKCGACGRTVYHAEEVQCDGRSFHRCCFLCMVCRKNLDSTTVAIHDEEIYCKSCYGKKYGPKGYGYGQGAGTLNMDRGERLGIKPESVQPHRPTTNPNTSKFAQKYGGAEKCSRCGDSVYAAEKIIGAGKPWHKNCFRCAKCGKSLESTTLTEKEGEIYCKGCYAKNFGPKGFGYGQGAGALVHAQ
**Q.** With B1 as the molecule, how does the binding [1] read?
**A.** Its binding is “no binding”.
